Sequences with one replicate were seen in a single cluster, so their values are uncertain.
Tested on: ATP
Assay: switch fluorescence ratio, 500 uM ATP over buffer (Cy3 cluster intensity, sum of 5 cycles each) (fold (ratio)); higher = stronger signal-on switching upon ATP binding; sequences stand for … in TCGTCGGCAGCGTCAGATGTGTATAAGAGACAGTTTTTTTTTTTTTTTTTTTTTTTTT…TC
Details: aptamer strand: ATP DNA aptamer (quencher-CACCTGGGGGAGTATTGCGGAGGAAGG + anchor), 100 nM annealed; ATP concentration: 500 uM; one replicate
In short: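 The fluorescence ratio divides summed target-cycle Cy3 intensity by summed buffer-cycle Cy3 intensity for each cluster and is averaged per switch-domain sequence. Cy3-labelled switching-strand clusters on a modified Illumina MiSeq flow-cell were annealed to 100 nM quencher-labelled ATP aptamer, then imaged in selection buffer and again after 15 min with 500 uM ATP at 22 °C. Five such cycles were run, with NaOH stripping and re-annealing between them, and clusters outside 100-1000 RFU were excluded.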
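Note: ATP exposure 15 min at 22 °C before imaging.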

Sequence	switch fluorescence ratio
CTTAAAGCGC	0.944
TTGAAGGTAA	4.92
AACTGCCTGA	1.04
TCTTCTTTCG	1.14
GCTCGATCTC	0.99
AAAGCTCAAC	1.07
CTGGACGGGA	1.01
CAATATCAGT	0.95
CTTAGAAGC	0.966
TTTAGTCCAG	0.998
AAATGAGAT	1.02
CAAATTCAGA	0.989
AGCGTGGGGA	0.973
TTGTTGAAA	0.958
GTGGCTGTGA	0.938
ATTCAAACGC	1.23
CGGCGGAC	1.26
TACATAGAGC	0.994
TGCAAGGATA	0.983
ATGCCGCCGG	1.01
AAATCTTGAC	0.99
AGCTAAAGCT	1.04

Sequence	switch fluorescence ratio
GGCGCTTGGT	0.998
AACTGCTAAG	0.999
GGTACGACAG	1.03
CATACATATA	1.04
GCCAAATGGC	1
TCGAAGTCAA	3.58
CGGAATCGGC	0.933
ACGTGTAATG	1.03
GGATCAGCTA	1.03
AGATGAGTTG	0.974
CTGATCTGCT	1.01
ATTTGTAATA	1.03
GCGAGTTGGA	0.991
GATCGAAGCG	1.01
GATCACTGAC	1.36
CACAGACCCA	1.13
ATTCAATTGA	0.954
TAAAGTGCGC	1.03
CGTGGGTTGG	0.991
GTCCCCAACG	1.05
GAGTTACGTA	1.04
ACGAGGTCCG	1.07

Sequence	switch fluorescence ratio
AGAAATCTGT	1.01
ACAGGGCTA	0.992
CCGGCGGCGA	1.88
TTTAAGCGTA	0.966
GCCCGCATTA	4.14
TGTAAACCAG	0.959
TCTGTTTGGC	0.94
GTGTAATTTA	1.01
TATGAGAT	1.03
TCGAGTACTA	1.04
TCATTAGTCG	1.01
AGTAGGCACC	1.03
AGTATCATTG	0.988
GAACGTTTAG	1.02
TGTACATTTT	1.03
TAGTTAGAGG	1.02
CAGGCCGGGG	1.03
CTCTAAGGCC	0.995
GAGCATGTTG	1.02
TAGGCTAGCT	0.926
AAAAGCTAGG	1.03
ATGAGCCAAG	1.02

Sequence	switch fluorescence ratio
CGAGTGGAGC	1.02
ATAGTTGGTA	0.989
CAGTTGATGT	0.975
CGGAGGTAAA	1.04
GTTAAATACG	1.59
TCATGGAAA	1.01
GGCCCCCCGG	1.12
CATGGTATGC	1.02
AAGCGTCTAG	1.05
AGTGAAGTTG	0.997
ATTCGCAAAT	2.14
CTGTAAATAG	1.18
CCACAAATTA	1.02
GTTCCTTCGG	1.12
TTGCGACTAA	0.967
GATCAAGCCA	0.991
TTGTCGATAT	1.14
GGCCAACATT	0.952
TTAAGTGCGA	1

Reference: the supplement of paper PMC10126150
